Reference: ChEMBL document CHEMBL5606460, “ASAP - DENV-2 NS2B-NS3 protease fluorescence single point” (2024)
The campaign covered roughly 2,000 compounds. About 110 (5.5%) showed an effect of 50% or more. This is one part of the list.

Target: Genome polyprotein (dengue virus type 2) (UniProt P29990)
[1] = Thailand/16681/1984, Concentration 25.0 uM, Number of replicates 1.0

## O=Cc1ccc(N2CCC(C(=O)N3CCN(C(=O)N4CCCCC4)CC3)CC2)cc1
[1]
  inhibition: 11.6%

## Cc1ccc(C(=O)N2CCC(NC(=O)C3CCN(c4ccc(C=O)cc4)CC3)CC2)cc1
[1]
  inhibition: 13.9%

## COC(=O)c1csc2cc(C(=O)N3CCCc4cc(CCN)ccc43)[nH]c12
Thailand/16681/1984, Concentration 49.5 uM, Number of replicates 2.0, Standard deviation 1.4939134214945897 %
  inhibition: 2.21%
Thailand/16681/1984, Concentration 99.01 uM, Number of replicates 2.0, Standard deviation 1.4587685132205075 %
  inhibition: 6.61%
Thailand/16681/1984, Concentration 198.0 uM, Number of replicates 2.0, Standard deviation 1.4676854376662603 %
  inhibition: 16.2%

## CCCCCC(=O)N[C@H](C(=O)N1CCC(N)CC1)c1ccc(OCc2ccccc2)cc1
Thailand/16681/1984, Concentration 49.5 uM, Number of replicates 2.0, Standard deviation 1.3500397593060436 %
  inhibition: -7.81%
Thailand/16681/1984, Concentration 99.01 uM, Number of replicates 2.0, Standard deviation 1.8738933918663763 %
  inhibition: -4.12%
Thailand/16681/1984, Concentration 198.0 uM, Number of replicates 2.0, Standard deviation 0.2605091648836539 %
  inhibition: -3.96%

## O=Cc1ccc(N2CCC(C(=O)NCc3ccc(F)c(Br)c3)CC2)cc1
[1]
  inhibition: 2.23%

## Cc1cc(CO)c2cccc(Cc3cccc(NC(=O)c4nc(N)n[nH]4)c3)c2n1
Thailand/16681/1984, Concentration 49.95 uM, Number of replicates 2.0, Standard deviation 2.1470069511188496 %
  inhibition: 1.75%
Thailand/16681/1984, Concentration 99.9 uM, Number of replicates 2.0, Standard deviation 2.660737289988502 %
  inhibition: 8.09%

## CNC(=O)c1cc2cc(Cl)ccc2n1S(=O)(=O)c1ccc(Oc2ccccc2Cl)cc1
Thailand/16681/1984, Concentration 49.5 uM, Number of replicates 2.0, Standard deviation 0.49657821525281054 %
  inhibition: 6.8%
Thailand/16681/1984, Concentration 99.01 uM, Number of replicates 2.0, Standard deviation 0.6960919552093164 %
  inhibition: 10.4%
Thailand/16681/1984, Concentration 198.0 uM, Number of replicates 2.0, Standard deviation 1.1059036335445078 %
  inhibition: 15.1%

## Cc1cc(CO)c2cccc(C[C@H](NC(=O)[C@H](N)CCO)C(=O)O)c2n1
Thailand/16681/1984, Concentration 49.95 uM, Number of replicates 2.0, Standard deviation 1.0633997801533022 %
  inhibition: -0.419%
Thailand/16681/1984, Concentration 99.9 uM, Number of replicates 2.0, Standard deviation 0.6573622045882916 %
  inhibition: 2.93%

## O=Cc1ccc(N2CCC(C(=O)N3CCCC[C@H]3C(=O)N3CCCC3)CC2)cc1
[1]
  inhibition: 12.3%

## Cc1cc(N)c2c(Cl)ccc(Cl)c2n1
Thailand/16681/1984, Concentration 49.95 uM, Number of replicates 2.0, Standard deviation 8.427681720895945 %
  inhibition: -5.26%
Thailand/16681/1984, Concentration 99.9 uM, Number of replicates 2.0, Standard deviation 7.565581927359314 %
  inhibition: -3.92%

## CC(C)(CC(=O)N1CCCC1)NC(=O)C1CCN(c2ccc(C=O)cc2)CC1
[1]
  inhibition: 15.4%

## NCc1ccc(C[C@H](NC(=O)c2ccccc2)C(=O)Nc2cccc(CN)c2)cc1
Thailand/16681/1984, Concentration 49.5 uM, Number of replicates 2.0, Standard deviation 0.5389148931693977 %
  inhibition: -5.92%
Thailand/16681/1984, Concentration 99.01 uM, Number of replicates 2.0, Standard deviation 0.9397447409121293 %
  inhibition: -2.14%
Thailand/16681/1984, Concentration 198.0 uM, Number of replicates 2.0, Standard deviation 0.2486807361427685 %
  inhibition: 3.08%

## O=Cc1ccc(N2CCC(C(=O)Nc3cc(Cl)ccc3OC(F)(F)F)CC2)cc1
[1]
  inhibition: 14.4%

## CCCc1nn(C)c(C(N)=O)c1NC(=O)C1CCN(c2ccc(C=O)cc2)CC1
[1]
  inhibition: 8.14%

## CCn1ccnc(N(C)[C@@H](CO)Cc2c[nH]c3ccccc23)c1=O
Thailand/16681/1984, Concentration 49.5 uM, Number of replicates 2.0, Standard deviation 1.9142623177196867 %
  inhibition: 3.34%
Thailand/16681/1984, Concentration 99.01 uM, Number of replicates 2.0, Standard deviation 1.7046808757656864 %
  inhibition: 10.7%
Thailand/16681/1984, Concentration 198.0 uM, Number of replicates 2.0, Standard deviation 1.1978606391499407 %
  inhibition: 23.8%

## COc1cc(Cc2ccnc(F)c2)nc(N2CCNCC2)n1
Thailand/16681/1984, Concentration 49.5 uM, Number of replicates 2.0, Standard deviation 1.25288427711158 %
  inhibition: 0.381%
Thailand/16681/1984, Concentration 99.01 uM, Number of replicates 2.0, Standard deviation 0.507793618082105 %
  inhibition: 1.26%
Thailand/16681/1984, Concentration 198.0 uM, Number of replicates 2.0, Standard deviation 1.9827356050970315 %
  inhibition: 2.2%

## Cc1cc(CO)c2cccc(NC(=O)COc3cccc(CN)c3)c2n1
Thailand/16681/1984, Concentration 49.95 uM, Number of replicates 2.0, Standard deviation 1.546456211659181 %
  inhibition: 9.18%
Thailand/16681/1984, Concentration 99.9 uM, Number of replicates 2.0, Standard deviation 0.8863913825569767 %
  inhibition: 7.18%

## NCc1cccc(NC(=O)C2CN(C(=O)OCc3ccccc3)C2)c1
Thailand/16681/1984, Concentration 49.5 uM, Number of replicates 2.0, Standard deviation 1.8861323941320305 %
  inhibition: -1.49%
Thailand/16681/1984, Concentration 99.01 uM, Number of replicates 2.0, Standard deviation 1.5682827158038206 %
  inhibition: -1.94%
Thailand/16681/1984, Concentration 198.0 uM, Number of replicates 2.0, Standard deviation 0.22643655672938587 %
  inhibition: -1.86%

## CC(C)(C)c1csc(NC(=O)C2CCN(c3ccc(C=O)cc3)CC2)n1
[1]
  inhibition: 14.5%

## Cc1cc(F)cc(Br)c1NC(=O)C1CCN(c2ccc(C=O)cc2)CC1
[1]
  inhibition: 15%

## C[C@@H](O)CNC(=O)c1cc(Cl)ccc1NS(=O)(=O)c1ccc(Oc2ccccc2Cl)cc1
Thailand/16681/1984, Concentration 49.5 uM, Number of replicates 2.0, Standard deviation 1.4145601780552486 %
  inhibition: 30.4%
Thailand/16681/1984, Concentration 99.01 uM, Number of replicates 2.0, Standard deviation 0.06674442365142796 %
  inhibition: 75.7%
Thailand/16681/1984, Concentration 198.0 uM, Number of replicates 2.0, Standard deviation 0.019135343573522066 %
  inhibition: 67%

## Cc1cc(CO)c2cccc(Cc3cccc(NC(=O)CNC4CC4)c3)c2n1
Thailand/16681/1984, Concentration 49.95 uM, Number of replicates 2.0, Standard deviation 1.5245757174015988 %
  inhibition: 0.182%
Thailand/16681/1984, Concentration 99.9 uM, Number of replicates 2.0, Standard deviation 1.8285218036822166 %
  inhibition: 7.46%
